The other results are listed elsewhere or left out.
Each compound was assayed on T1, C. trachomatis L2/434/Bu expressing GFP (CTL2-GFP). Settings: total inclusion area; 28.5 h, 10 µM; inhibitor.
T1 construct: L2/434/Bu GFP intracellular growth in HeLa cells
Design: species or system HeLa; C. trachomatis total inclusion area by high-content imaging, normalised to DMSO
How it was run: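 Host cell viability was gauged from Hoechst-stained nuclei counts, while chlamydial growth was taken from total inclusion area and inclusion number per well. Cells were fixed and imaged by high-content microscopy once bulk GFP and resorufin fluorescence had been measured.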

SMILES | % of control remaining
COc1ccccc1-c1cnc(N)c(NCc2ccccc2)n1 [CBK063357] | 129.37
Cc1cccn2cc(-c3ccc4c(c3)CCN4S(C)(=O)=O)cc12 [CBK285226] | 116.882
Cc1c2c(n(-c3ccccc3)[n+]1[O-])NC1(CCC1)[C@@H]1C[C@@H](O)[C@@H](O)[C@H]21 [CBK303253] | 89.582
Cc1ccc(C2(O)CCN(CCNC(=O)C3CC3C)CC2)cc1 (stereo not shown) [CBK282607] | 92.4028
Cc1nc(-c2ccc(CNC(=O)c3cc(=O)[nH]c4ccccc34)o2)cs1 [CBK238261] | 104.036
CN(C)C(=O)Cn1nc(C(c2ccccc2)c2ccccc2)oc1=O [CBK283747] | 93.8097
c1ccc(-c2cc(CC3(NCc4cccnc4)COC3)no2)nc1 [CBK289238] | 119.503
CNC(=O)CN1CCC[C@@H]2NC(=O)COc3ccccc3C(=O)N[C@@H]3CCOC[C@@H]3C/C=C/C[C@@H]21 [CBK292040] | 84.392
Cc1cc(C(=O)N2CCC(C(=O)c3ccnn3C)CC2)sc1C [CBK284428] | 73.6679
Cc1ccc2cc3c(nc2c1)OCC(=O)N(Cc1ccco1)C3 [CBK283539] | 88.4813
CC(=O)N1CCC(N2CC[C@H](c3nnc(-c4ccco4)o3)C2)CC1 [CBK289395] | 118.046
O=C(Nc1ccn(C23CC4CC(CC(C4)C2)C3)n1)c1ccco1 [CBK288023] | 84.2923
Cc1[nH]c2ccc(F)cc2c1-c1cn2c3c(nnc2n1)CCCC3 [CBK283172] | 123.342
O=C(Nc1ccccc1)[C@H]1O[C@H](CCN2CCN(c3ccccn3)CC2)CC[C@@H]1O [CBK288726] | 103.021
COC(=O)C(C)CSc1ccc(C(C)(C)C)cc1 (stereo not shown) [CBK010499] | 76.7746
CCOC(=O)c1cnc2c(C)c(Cl)ccc2c1NCCN(C)C [CBK265965] | 83.6669
COc1ccc(C(CNC(=O)C(=O)Nc2ccc(C(=O)O)cc2)N(C)C)cc1 (stereo not shown) [CBK286724] | 41.4191
O=C(Nc1nnc(-c2ccccn2)o1)c1cc(Cl)ccc1Cl [CBK287429] | 86.8208
Cc1cc(COc2cc(N3CCCC3)ncn2)no1 [CBK115898] | 110.627
O=C1C2N=NN(Cc3ccccc3)C2C(=O)N1C1CCCCC1 (stereo not shown) [CBK067389] | 113.212
C[C@H](c1ccccc1)n1c(=O)[nH]c2ncc(-c3cncc4ccccc34)nc21 [CBK064709] | 139.137
Cn1nc(C2CC2)cc1NS(C)(=O)=O [CBK038148] | 127.451
Cc1cc(NC(=O)CCn2cc(Br)cn2)no1 [CBK304326] | 46.1289
Cc1ccnn1CCNC(=O)C(C)Cc1cccs1 (stereo not shown) [CBK281633] | 98.7553
Cc1nn(CC(=O)NC(C)c2cccnc2)c(C)c1C (stereo not shown) [CBK281489] | 74.4395
O=C(c1ccccc1F)N1C[C@H](c2ccsc2)[C@H]2CN(Cc3ccsc3)CC[C@H]21 [CBK285661] | 78.1919

SMILES | % of control remaining
CN(CCOC(=O)c1cccnc1)C(C)(C)C [CBK027543C] | 120.839
CCOc1ccc(CSC2=NCCN2)cc1Cl [CBK027449C] | 97.3113
Cc1ccc(OCCn2ccnc(N3CCNCC3)c2=O)c([N+](=O)[O-])n1 [CBK001381C] | 86.2087
CC1(C)CCN(Cc2ccccc2)C1CC#N (stereo not shown) [CBK006978C] | 81.7004
CC(C)Nc1nc2ccccc2nc1SCCc1ccncc1 [CBK103670] | 73.5498
CC(Cn1cncn1)NS(=O)(=O)c1cccc(C(=O)N2CCCCC2)c1 (stereo not shown) [CBK306594] | 77.4642
COc1nccnc1N1CCN(CC(=O)Nc2c(C)cccc2C)CC1 [CBK084220] | 88.5202
CCN(CC(=O)NCc1ccc(C)cc1)S(=O)(=O)c1ccc(C)cc1 [CBK267511] | 86.3852
O=C(c1cccnc1)C1CCN(C(=O)Cc2ccc(F)cc2)CC1 [CBK283515] | 87.7279
S=C(NCCc1ccccc1)NCCn1cc(Cl)cn1 [CBK266912] | 87.028
CCC1CCCCN1C(=O)c1cc(Br)c(Br)s1 (stereo not shown) [CBK089360] | 78.7414
CCCc1nc(-c2ccc3c(c2)CCCN3S(C)(=O)=O)cs1 [CBK306253] | 130.021
Cc1c(Cl)cccc1NC(=S)NNC(=O)C(C)Oc1ccc(F)cc1F (stereo not shown) [CBK266823] | 85.291
Cc1nnc2n1CCN(C(=O)CC1OCCc3sccc31)C2 (stereo not shown) [CBK304956] | 81.807
O=C(c1cc2c(s1)CCCC2)N1CCCCC1c1nnc(-c2nccc3ccccc23)o1 (stereo not shown) [CBK285577] | 116.193
CC(=O)c1ccccc1-c1ccc(C(=O)N2CCN(C)CC2)c(NCC2CC2)n1 [CBK076613] | 106.646
Cc1ccccc1C(NC(=O)C1CCN(C(=O)CCC2CCCC2)CC1)c1ccccn1 (stereo not shown) [CBK059677] | 101.315
O=C(OCc1ccccc1)N1CCC2(CC1)CN(c1ccc(C(F)(F)F)cn1)CCO2 [CBK161116T] | 92.1607
COCCOCC(=O)N1CC(=O)N(c2ccccc2C#N)CC1C (stereo not shown) [CBK307258] | 61.6607
O=C(Cc1cccc(F)c1)N1C2CCC1CC(O)(c1ccco1)C2 (stereo not shown) [CBK284138] | 97.6877
S=C(Nc1ccc(Nc2ccccc2)cc1)N1CCN(Cc2ccc3c(c2)OCO3)CC1 [CBK266141] | 111.189
Nc1ncc(-c2ccc(C(=O)N3CCOCC3)cc2)nc1-c1ccc(C[C@H](N)C(=O)O)cc1 [CBK126364] | 106.062
Cc1cc(C(=O)NC2CCCC2)n[nH]1 [CBK200240] | 99.9265
CC(C)N(C(=O)Cn1nc(-c2cccs2)ccc1=O)C(C)C [CBK282638] | 131.847
Cc1noc(CN2CCNC(=O)C2c2ccccc2C(F)(F)F)n1 (stereo not shown) [CBK306405] | 86.2938
NC(=O)CC1C(=O)N(c2ccc(F)cc2)C(=S)N1NC(=O)CCc1ccccc1 (stereo not shown) [CBK268978A] | 119.937
